Results published in publication PMC4336329 (PLoS ONE, 2015).
Out of some 310,000 compounds screened, about 14,000 (4.5%) showed an effect of 50% or more. Effects have a minus sign here. The list shows a part of the results.

The compounds below were run against human ether-à-go-go-related gene (hERG) potassium channel (human, UniProt Q12809) (assay: primary screen, population patch clamp on CHO cells stably expressing hERG).
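Also: peak tail current of the secondary pulse compared with the same well before compound.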

Chain of human ether-à-go-go-related gene (hERG) potassium channel (Q12809 whole entry, looked up): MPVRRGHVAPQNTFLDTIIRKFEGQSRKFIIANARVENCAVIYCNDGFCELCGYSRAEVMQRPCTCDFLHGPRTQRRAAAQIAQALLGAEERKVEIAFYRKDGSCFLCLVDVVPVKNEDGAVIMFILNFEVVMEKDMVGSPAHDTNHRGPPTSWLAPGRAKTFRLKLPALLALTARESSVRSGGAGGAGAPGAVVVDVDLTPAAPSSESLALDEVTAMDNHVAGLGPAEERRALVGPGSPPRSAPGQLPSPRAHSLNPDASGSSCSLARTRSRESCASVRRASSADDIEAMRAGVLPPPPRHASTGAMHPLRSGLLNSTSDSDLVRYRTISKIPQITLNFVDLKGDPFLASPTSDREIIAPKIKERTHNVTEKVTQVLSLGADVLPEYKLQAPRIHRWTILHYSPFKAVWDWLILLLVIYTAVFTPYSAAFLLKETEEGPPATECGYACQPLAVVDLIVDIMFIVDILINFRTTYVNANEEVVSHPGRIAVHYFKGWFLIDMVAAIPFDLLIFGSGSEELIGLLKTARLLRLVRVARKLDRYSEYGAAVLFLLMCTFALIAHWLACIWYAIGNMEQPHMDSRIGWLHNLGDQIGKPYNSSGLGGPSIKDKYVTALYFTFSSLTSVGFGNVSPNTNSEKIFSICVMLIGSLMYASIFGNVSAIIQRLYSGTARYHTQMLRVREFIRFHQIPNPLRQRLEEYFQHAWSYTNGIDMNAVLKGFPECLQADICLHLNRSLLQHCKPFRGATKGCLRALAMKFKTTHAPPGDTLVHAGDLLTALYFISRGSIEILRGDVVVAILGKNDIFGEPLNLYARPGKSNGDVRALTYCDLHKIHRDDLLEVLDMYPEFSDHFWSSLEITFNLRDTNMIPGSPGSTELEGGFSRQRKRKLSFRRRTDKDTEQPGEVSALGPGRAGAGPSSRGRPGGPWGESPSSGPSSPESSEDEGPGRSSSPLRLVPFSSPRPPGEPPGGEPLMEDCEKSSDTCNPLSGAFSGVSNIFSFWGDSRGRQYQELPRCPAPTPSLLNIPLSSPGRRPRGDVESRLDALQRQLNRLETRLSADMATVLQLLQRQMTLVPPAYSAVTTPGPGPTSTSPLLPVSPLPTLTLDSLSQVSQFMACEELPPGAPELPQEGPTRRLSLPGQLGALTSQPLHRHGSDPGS

Row | Compound | hERG current change (%, negative = inhibition) at 10uM [%]
1 | O=[N+]([O-])c1cc([N+](=O)[O-])c(Oc2c(F)cccc2F)cc1NN1CCCCC1 | 4.44
2 | COc1cc2c(cc1OC)CN(C(=O)CN1CCN(S(=O)(=O)c3ccc(C)c(C)c3)CC1)CC2 | -40.9
3 | COc1ccc(C2C(C#N)=C(C)NC3=C2C(=O)c2ccccc23)cc1 (centres unmarked) | 6.49
4 | O=C(Nn1cnnc1)c1ccncc1 | -9.28
5 | Cc1ccc(N=N/C(=C\O)C(=O)c2ccc(Cl)cc2)cc1 | 14.1
6 | CCc1cc(C(=O)Cc2nc3ccccc3[nH]2)c(O)cc1O | 8.34
7 | CN(C)S(=O)(=O)c1ccc(NC(=O)c2ccncc2)cc1 | 10.5
8 | COc1ccc(C(NC(C)=O)c2cc(Cl)c3cccnc3c2O)cc1OC (centres unmarked) | 8.49
9 | NS(=O)(=O)c1ccc(CCNC(=O)c2ccccc2-c2ccccc2)cc1 | 0.242
10 | Cc1ccccc1/C=C\c1nc2ccccc2c(=O)[nH]1 | 10.5
11 | C=CCN1CC(C)/C(=N\O)CC1C (centres unmarked) | 9.96
12 | CC(=O)Nc1ccc(S(=O)(=O)N/N=C/c2ccc(C)o2)cc1 | 10.2
13 | Cc1nc2scc(-c3cccs3)c2c(=O)n1CC(=O)O | 5.83
14 | COCCn1cnc2c1c(=O)n(Cc1c(F)cccc1Cl)c(=O)n2Cc1ccccc1 | -7.35
15 | COC(=O)CNC(=O)c1c(C)cc(=O)oc1C | 8.37
16 | COC(=O)CN(c1ccccc1F)S(=O)(=O)c1ccc(C)cc1 | 1.82
17 | COC(=O)c1ccccc1NC(=S)N1CCN(C2CCCCC2)CC1 | -22.4
18 | CCN(CC)CCN(C(=O)c1ccc(S(=O)(=O)N2CCCC2)cc1)c1nc2cc(C)cc(C)c2s1.Cl | -44.1
19 | Cc1ccc(N/C(N)=N/c2nc3c(c(=O)[nH]2)CCCC3)c(C)c1 | -1.9

Row | Compound | hERG current change (%, negative = inhibition) at 10uM [%]
20 | CC1CCCN(c2ccc(C(=O)NCc3ccco3)cc2[N+](=O)[O-])C1 (centres unmarked) | -44.4
21 | Cc1nc2c(C)cccn2c1C(=O)c1ccccc1.Cl | -0.644
22 | O=c1c2cc(N3CCOCC3)ccc2[nH]c(=S)n1CCN1CCCC1 | -6.02
23 | CC1(C)CC(=O)C(=Cc2cn(-c3ccccc3)nc2-c2ccccc2)C(=O)C1 | -24.1
24 | Cc1ccc(C)c(NC(=O)c2ccc(S(=O)(=O)C(F)F)cc2)c1 | -4.53
25 | O=c1[nH]c2ccccc2n1C1CCCCC1 | -5.49
26 | O=c1cc(CO)[nH]cc1OCc1ccccc1 | 19.7
27 | O=C(Nc1ccc(S(=O)(=O)N2CCN(c3ccccc3)CC2)cc1)c1cccs1 | 8.53
28 | CC(C)OC(=O)CC(=O)c1sc2nc3c(cc2c1N)CN(C)CC3 | -0.997
29 | Cc1ccc2c(CC(=O)OCn3nnc4ccccc4c3=O)coc2c1 | 23.2
30 | Cc1ccc(-c2csc(/C(C#N)=C/Nc3ccccc3SC(F)(F)F)n2)c(C)c1 | 19.7
31 | CSc1nc(=S)n(-c2cc(C)ccc2C)c(C)c1C(C)=O | 15.1
32 | COc1ccc(C2c3c(ncn(CCCO)c3=N)Oc3ccc4ccccc4c32)cc1OC (centres unmarked) | -28.8
33 | Cc1c(Br)c([N+](=O)[O-])nn1CC(=O)NCCc1ccc(Cl)cc1 | -17.9
34 | O=[N+]([O-])/C=C1/NCCN1Cc1ccc(Cl)nc1 | -1.96
35 | COc1ccc(Cl)cc1C(=O)Nn1c(C)nc2ccccc2c1=O | 10.3
36 | Cc1cccnc1NC(=O)CN1C(=O)c2ccccc2S1(=O)=O | 4.78
37 | Cc1sc2nc(SCC(N)=O)n(C)c(=O)c2c1C | 9.48
38 | CCCCn1c(N)c(N(CC(C)C)C(=O)CCCc2nc3ccccc3c(=O)[nH]2)c(=O)[nH]c1=O | 14.2

Row | Compound | hERG current change (%, negative = inhibition) at 10uM [%]
39 | CC(CNC(=O)C(C)C)NC(=O)C(C)C (centres unmarked) | 7.92
40 | Cc1cc(C)cc(C(=O)Nc2ccc(N3CCN(C(=O)c4ccco4)CC3)cc2)c1 | 5.79
41 | C=CCNC(=S)N1CCC(C(=O)c2ccc(Cl)cc2)CC1 | -37.8
42 | Cc1ccsc1/C=C1\SC(N2CC(C)OC(C)C2)=NC1=O (centres unmarked) | -3.26
43 | Cc1cc(C)c(C)c(S(=O)(=O)NCc2ccncc2)c1C | 3.88
44 | O=C(NC1CCCCC1)c1ccc(S(=O)(=O)NCc2cccnc2)cc1 | 5.88
45 | CC(CCN1CCN(c2ccc(F)cc2)CC1)c1ccccc1 (centres unmarked) | -64.3
46 | O=C1CCCN1c1ccc(C(=O)N(Cc2nnc(-c3ccc(Cl)cc3)o2)C2CC2)cc1 | -38.8
47 | Cc1c(C(=O)N2CCCCCC2)c(S(=O)(=O)Nc2ccc(F)cc2)c(C)n1C | 10.6
48 | COc1ccc(C(C(=O)NC2CCCC2)N(Cc2cccnc2)C(=O)c2snc(C(N)=O)c2N)cc1 (centres unmarked) | -20.3
49 | CC(=O)c1ccc(NC(=O)c2cnn3c(C(F)F)cc(C4CC4)nc23)cc1 | 11.1
50 | Cc1ccc(C(NC(=O)c2ccccc2)C(Cl)Cl)cc1 (centres unmarked) | 9.04
51 | Cc1c(/C(O)=C2/C(=O)C(=O)N(CCN(C)C)C2c2ccc(C(C)C)cc2)cnn1-c1ccccc1 (centres unmarked) | 5.44
52 | CC(C)(C)OC(=O)NCCCCCc1nnc(SCc2ccccc2)o1 | -9.97
53 | COc1cc(C(=O)Nc2ccc(N3CCN(C(=O)c4ccc(C)cc4)CC3)cc2)cc(OC)c1OC | -30.3
54 | NC(=O)NC1NC(=O)NC1=O (centres unmarked) | 11.9
55 | CCC(C(=O)N1CCCCCC1)n1nc(C)n2c(cc3occc32)c1=O (centres unmarked) | 11.8
56 | CS(=O)(=O)c1ccc(Cl)c(NC(=O)c2cc(=O)[nH]c3ccc(S(=O)(=O)N4CCOCC4)cc23)c1 | 0.653
